Experimental findings from article PMC4336329 (PLoS ONE, 2015) are described below.

Structures are written as SMILES. Among all 310,000 compounds or so, about 14,000 (4.5%) showed an effect of 50% or more. Effects have a minus sign here. The list shows a part of the results.
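Note: peak tail current of the secondary pulse compared with the same well before compound.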

For this assay, the target named is human ether-à-go-go-related gene (hERG) potassium channel (human, UniProt Q12809). The assay is described as follows: primary screen, population patch clamp on CHO cells stably expressing hERG.
Chain of human ether-à-go-go-related gene (hERG) potassium channel (Q12809 whole entry, looked up): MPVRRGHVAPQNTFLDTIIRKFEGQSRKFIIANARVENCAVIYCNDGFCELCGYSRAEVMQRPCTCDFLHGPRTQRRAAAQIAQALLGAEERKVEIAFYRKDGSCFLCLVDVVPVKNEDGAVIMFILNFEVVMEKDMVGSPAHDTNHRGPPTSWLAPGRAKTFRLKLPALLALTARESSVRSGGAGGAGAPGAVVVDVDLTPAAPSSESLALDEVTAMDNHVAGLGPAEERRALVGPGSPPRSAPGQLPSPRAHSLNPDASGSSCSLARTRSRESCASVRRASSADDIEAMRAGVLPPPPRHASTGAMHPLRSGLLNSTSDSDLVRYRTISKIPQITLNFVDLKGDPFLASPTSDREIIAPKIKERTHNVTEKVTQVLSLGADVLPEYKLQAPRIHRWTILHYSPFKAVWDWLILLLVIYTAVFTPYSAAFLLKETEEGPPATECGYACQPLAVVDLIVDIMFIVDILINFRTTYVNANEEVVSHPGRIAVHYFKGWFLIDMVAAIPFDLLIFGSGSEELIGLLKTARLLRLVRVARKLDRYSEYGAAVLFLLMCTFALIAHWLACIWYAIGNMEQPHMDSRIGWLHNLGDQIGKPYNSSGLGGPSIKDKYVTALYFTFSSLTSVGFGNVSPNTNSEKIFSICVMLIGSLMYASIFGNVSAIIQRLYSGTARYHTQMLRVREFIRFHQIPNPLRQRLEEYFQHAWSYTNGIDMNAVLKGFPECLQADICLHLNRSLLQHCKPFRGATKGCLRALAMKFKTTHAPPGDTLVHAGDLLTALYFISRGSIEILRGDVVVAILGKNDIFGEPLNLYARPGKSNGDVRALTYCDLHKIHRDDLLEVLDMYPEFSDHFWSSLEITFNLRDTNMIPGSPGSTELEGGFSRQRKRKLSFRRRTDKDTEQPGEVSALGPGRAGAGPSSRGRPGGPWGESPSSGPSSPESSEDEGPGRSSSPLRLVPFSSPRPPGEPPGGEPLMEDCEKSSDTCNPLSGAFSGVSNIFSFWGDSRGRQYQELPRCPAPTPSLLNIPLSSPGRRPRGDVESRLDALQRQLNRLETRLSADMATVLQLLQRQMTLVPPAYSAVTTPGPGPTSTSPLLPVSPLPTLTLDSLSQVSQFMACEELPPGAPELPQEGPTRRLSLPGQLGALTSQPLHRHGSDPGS
On to `CSc1ncccc1C(=O)NCCc1ccccc1`, for which the “hERG current change (%, negative = inhibition) at 10uM” value is recorded as 7.94%. Turning to `O=C(C[n+]1cccc(CNC(=O)c2ccc(OC(F)F)cc2)c1)c1ccccc1.[Cl-]`, the “hERG current change (%, negative = inhibition) at 10uM” value is -14.7%. As to `CCCC(C)c1nnc(NC(=O)C2CC(=O)N(c3ccc(OCC)cc3)C2)s1` (centres unmarked), the “hERG current change (%, negative = inhibition) at 10uM” value is recorded as -20.1%. `Cc1ccc(C)c(NC(=O)c2cc(-c3cc(C)cc(C)c3O)n[nH]2)c1`: the “hERG current change (%, negative = inhibition) at 10uM” value was determined as 26.1%. The same measure for `CCN(C(=O)CN1C(=O)/C(=C/c2ccccc2)SC1=S)C1CCS(=O)(=O)C1` (centres unmarked): 20.8%. Take `CC(=O)c1cccc(NC(=O)Nc2ccc(C(=O)N3CCOCC3)cc2)c1`: the “hERG current change (%, negative = inhibition) at 10uM” value is given as -0.351%.

In the case of `O=C(O)CCNC(=O)/C(=C\c1ccco1)NC(=O)c1ccco1`, the “hERG current change (%, negative = inhibition) at 10uM” value is on record as 10.7%.

On to `Cl.c1ccc2c(c1)oc1c(NCCCn3ccnc3)ncnc12`, for which the “hERG current change (%, negative = inhibition) at 10uM” value was -58.7%.

On to `CCOC(=O)N1CCC(N(CCN(C)C)C(=S)Nc2ccccc2Cl)CC1`, for which the “hERG current change (%, negative = inhibition) at 10uM” value amounted to 8.75%. For the compound `Cn1c(SCC(=O)NCCc2ccccc2)nnc1C1CCCCC1`, the “hERG current change (%, negative = inhibition) at 10uM” value is on record as 21%. With `CN[C@@H](C)[C@@H](O)c1ccccc1.Cl`, the “hERG current change (%, negative = inhibition) at 10uM” value amounted to 6.56%.

On to `O=C(NC(=S)Nc1sc2c(c1C(=O)O)CCCC2)c1ccccc1`, for which the “hERG current change (%, negative = inhibition) at 10uM” value worked out at 3.77%. The same measure for `COC(=O)C(O)(CC(=O)Nc1ccc(OC)cc1)C(F)(F)F` (centres unmarked): 3.12%; for `COc1cc(-c2noc(C)c2C(=O)NCCO)cc(OC)c1OC`: 7.69%. The same measure for `Cc1c(C(=O)NCCc2ccc(S(N)(=O)=O)cc2)cccc1[N+](=O)[O-]`: 11.6%; for `CC(=O)Nc1cccc(-n2nnc(SCC(=O)N(C)c3ccccc3)n2)c1`: 5.28%; for `Cc1cc(Cl)ccc1C(=O)C1CCCN(C(=O)CCn2cnnn2)C1` (centres unmarked): -5.17%. As for `N#CC1(NC(=O)CN2C(=O)c3ccc([N+](=O)[O-])cc3C2=O)CCCCC1`, the “hERG current change (%, negative = inhibition) at 10uM” value stood at 4.83%. Take `CN(C)S(=O)(=O)c1cccc(NC(=O)CCSc2ccc(Cl)cc2)c1`: the “hERG current change (%, negative = inhibition) at 10uM” value is reported as -6.16%. The same measure for `COc1ccc(C(=O)NC(C)(C)C)cc1S(=O)(=O)N1CCCC1`: -1.11%; for `O=C(c1ccc(C(F)(F)F)cc1)C1CCCN(C(=O)c2cnccn2)C1` (centres unmarked): -16.5%; for `CC(NC(=O)c1ccnn1C)C1CCCO1` (centres unmarked): 16%.

`COc1ccc(/C=N/n2c(C)nc3ccccc3c2=O)cc1OC`: the “hERG current change (%, negative = inhibition) at 10uM” value stood at 7.01%.

On to `CCC(C)(C)n1nnnc1C(c1ccc(OC)c(OC)c1)N1CCN(C(=O)c2ccco2)CC1.Cl` (centres unmarked), for which the “hERG current change (%, negative = inhibition) at 10uM” value is listed as -27.9%. Regarding `C/C(=N/NC(=O)CCc1ccccc1)c1ccco1`, the “hERG current change (%, negative = inhibition) at 10uM” value came out at 9.7%. Regarding `Cc1ccc(OCCNC(=O)c2cccc(S(=O)(=O)N3CCN(C)CC3)c2)cc1`, the “hERG current change (%, negative = inhibition) at 10uM” value is on record as -16.6%. `O=c1c2ccccc2[nH]c(=S)n1Cc1ccccc1Cl`: the “hERG current change (%, negative = inhibition) at 10uM” value came out at 21%. Take `CCOc1ccc(-c2nc(S(=O)(=O)c3ccccc3)c(N3CCOCC3)o2)cc1`: the “hERG current change (%, negative = inhibition) at 10uM” value is -30.1%.

`O=C(Nc1ccc2c(c1)CCC2)C1CCCO1` (centres unmarked): the “hERG current change (%, negative = inhibition) at 10uM” value is listed as 2.89%.

In the case of `CO/N=C/c1cccn1-c1nccc(N(C)C)c1C#N`, the “hERG current change (%, negative = inhibition) at 10uM” value is -2.01%. With `O=C(CN1CCN(c2nc(-c3ccccc3)cs2)CC1)NNC(=O)c1ccc(Br)cc1`, the “hERG current change (%, negative = inhibition) at 10uM” value was determined as 0.759%. For `CC(C)(C)Nc1nc(NC(C)(C)C)nc(-n2ccnc2)n1`, the “hERG current change (%, negative = inhibition) at 10uM” value is reported as -0.0313%. As for `CCO[C@H]1OC(C(=O)N2CCN(C)CC2)=C[C@@H](c2coc3ccccc3c2=O)[C@@H]1CCCO`, the “hERG current change (%, negative = inhibition) at 10uM” value stood at 8.9%. Regarding `CCOC(=O)c1c(-c2ccccc2)oc2ccc(OC(=O)N(C)C)cc12`, the “hERG current change (%, negative = inhibition) at 10uM” value is on record as -6.14%. As to `C=CCN(CC=C)C(=O)c1cccc(OC2CCN(CC(C)(C)C)CC2)c1`, the “hERG current change (%, negative = inhibition) at 10uM” value stood at 2.48%. Regarding `O=C(NC(c1ccc(Cl)cc1)c1cc(Cl)c2cccnc2c1O)c1cccnc1` (centres unmarked), the “hERG current change (%, negative = inhibition) at 10uM” value is on record as -15.3%. For the compound `Cc1csc2nc3ccccc3c(=O)n12`, the “hERG current change (%, negative = inhibition) at 10uM” value stood at 6.97%.

As for `Oc1cccc(NC(=S)Nc2ccccc2)c1`, the “hERG current change (%, negative = inhibition) at 10uM” value was found to be 17.8%.

With `CC(C)n1c(=S)[nH]c2scc(-c3cccs3)c2c1=O`, the “hERG current change (%, negative = inhibition) at 10uM” value is given as 17.1%. The same measure for `O=[N+]([O-])c1ccccc1NCCNS(=O)(=O)c1ccc(Cl)cc1`: 4.23%; for `COc1cc(/C=C2\SC(=O)NC2=O)ccc1Oc1cnccn1`: 2.14%; for `COc1cccc2cc(NC(=O)C3CCCCC3)c(=O)oc12`: 11.6%. The same measure for `CCOC(=O)C1=C(C)NC(=O)C(C(N)=O)C1c1ccccc1` (centres unmarked): 5.2%; for `Cc1ccc(N2C(=O)[C@@H]3[C@H](C2=O)C2CCCN2[C@@H]3C(=O)c2ccccc2)cc1` (some centres unmarked): 4.45%.
